According to paper PMC3229578:
No constants are given. Whether binding was seen depends on the method and setting. In cells and extracts the contact can be indirect. Some results given as binding are weak or reduced against the parent protein; the word gives no strength. For part of these data: Where a sequence is shown, tags or fusion partners need not be part of it. Values belong to the substance of their own block, whether it stands above or below them.

By UniProt entry, the sequences of proteins in these tests, tags left out. Where a name states a change or a piece, a line headed by the entry shows the natural chain unless it says otherwise.
UniProt Q9WUI0: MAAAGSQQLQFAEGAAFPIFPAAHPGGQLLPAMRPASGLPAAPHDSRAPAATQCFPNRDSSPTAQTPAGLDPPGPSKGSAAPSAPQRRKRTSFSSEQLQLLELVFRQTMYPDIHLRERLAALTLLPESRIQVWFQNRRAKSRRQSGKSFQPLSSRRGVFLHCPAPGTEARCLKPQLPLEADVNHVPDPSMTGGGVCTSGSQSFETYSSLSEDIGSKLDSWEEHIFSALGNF
UniProt Q02591: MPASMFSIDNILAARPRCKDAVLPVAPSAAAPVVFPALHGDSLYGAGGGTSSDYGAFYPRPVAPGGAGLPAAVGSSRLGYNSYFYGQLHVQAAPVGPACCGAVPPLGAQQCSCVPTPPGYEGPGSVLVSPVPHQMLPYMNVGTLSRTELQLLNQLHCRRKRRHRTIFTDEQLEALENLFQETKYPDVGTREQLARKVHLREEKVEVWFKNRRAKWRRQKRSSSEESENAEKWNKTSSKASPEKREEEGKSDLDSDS

What was measured:
FLAG mMixl1 (mouse) = FLAG mMixl1 (mouse) (UniProt Q9WUI0); test: co-IP; 293T cells co-transfected with FLAG and HA expression plasmids; whole cell lysates in ELB150 buffer; IP with 5 µg anti-FLAG M2 or isotype control antibody, 4°C, protein G beads; Western blot with anti-HA (or anti-T N19)
GST mTbx3 (mouse) = biological target: T1, GST mTbx3 (mouse) (UniProt P70324); test: pull-down; 293T cells co-transfected with pDEST27 (GST) and pMT2-SM HA plasmids; whole cell lysates in ELB150 buffer on glutathione agarose, 4°C; Western blot with anti-HA
T1 sequence: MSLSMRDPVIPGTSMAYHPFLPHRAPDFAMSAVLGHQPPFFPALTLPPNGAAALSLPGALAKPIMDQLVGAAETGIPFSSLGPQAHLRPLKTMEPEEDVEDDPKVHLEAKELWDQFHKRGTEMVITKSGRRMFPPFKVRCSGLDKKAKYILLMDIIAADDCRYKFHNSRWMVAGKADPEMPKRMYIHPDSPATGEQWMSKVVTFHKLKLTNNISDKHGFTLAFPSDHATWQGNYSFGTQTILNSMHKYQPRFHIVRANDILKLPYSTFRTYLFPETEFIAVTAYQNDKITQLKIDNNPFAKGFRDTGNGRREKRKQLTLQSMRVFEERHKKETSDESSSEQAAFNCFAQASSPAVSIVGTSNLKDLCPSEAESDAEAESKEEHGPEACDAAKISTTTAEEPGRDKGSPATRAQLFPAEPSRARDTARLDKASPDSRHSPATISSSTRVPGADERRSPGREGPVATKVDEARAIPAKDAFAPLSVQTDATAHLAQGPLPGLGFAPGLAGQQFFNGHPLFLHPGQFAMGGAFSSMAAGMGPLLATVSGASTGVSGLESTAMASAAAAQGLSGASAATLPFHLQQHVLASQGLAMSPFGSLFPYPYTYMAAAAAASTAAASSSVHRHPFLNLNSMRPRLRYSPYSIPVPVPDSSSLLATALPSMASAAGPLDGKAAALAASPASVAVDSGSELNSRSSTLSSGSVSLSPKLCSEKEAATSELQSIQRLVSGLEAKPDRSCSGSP

GST mTbx6 (mouse) = biological target: T2, GST mTbx6 (mouse) (UniProt P70327); test: as above
T2 sequence: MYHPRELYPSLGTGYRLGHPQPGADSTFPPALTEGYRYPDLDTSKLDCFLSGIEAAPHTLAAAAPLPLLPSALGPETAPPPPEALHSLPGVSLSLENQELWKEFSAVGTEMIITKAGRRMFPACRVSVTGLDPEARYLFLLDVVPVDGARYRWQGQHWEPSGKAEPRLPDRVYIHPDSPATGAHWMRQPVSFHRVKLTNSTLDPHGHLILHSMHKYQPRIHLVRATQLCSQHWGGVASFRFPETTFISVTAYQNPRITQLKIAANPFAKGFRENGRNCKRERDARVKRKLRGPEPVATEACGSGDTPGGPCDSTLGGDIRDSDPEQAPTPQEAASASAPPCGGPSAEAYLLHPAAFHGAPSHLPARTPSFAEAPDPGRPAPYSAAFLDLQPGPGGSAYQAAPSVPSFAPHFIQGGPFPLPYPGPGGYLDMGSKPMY

GST mTbx20 (mouse) = biological target: T3, GST mTbx20 (mouse) (UniProt Q9ES03); test: as above
T3 sequence: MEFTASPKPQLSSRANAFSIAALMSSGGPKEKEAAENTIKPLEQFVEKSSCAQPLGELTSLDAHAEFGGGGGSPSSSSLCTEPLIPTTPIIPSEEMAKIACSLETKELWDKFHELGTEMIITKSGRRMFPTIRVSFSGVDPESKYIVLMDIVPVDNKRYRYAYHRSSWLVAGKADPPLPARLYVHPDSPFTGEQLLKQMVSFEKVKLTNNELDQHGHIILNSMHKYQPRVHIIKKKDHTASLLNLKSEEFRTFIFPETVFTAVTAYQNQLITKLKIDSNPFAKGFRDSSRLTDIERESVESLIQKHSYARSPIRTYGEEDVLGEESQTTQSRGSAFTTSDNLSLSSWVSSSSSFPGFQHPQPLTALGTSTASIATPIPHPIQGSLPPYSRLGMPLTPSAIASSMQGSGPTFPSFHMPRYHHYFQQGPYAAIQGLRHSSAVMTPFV

GST mT (mouse) = biological target: T4, GST mT (mouse) (UniProt P20293); test: as above
T4 sequence: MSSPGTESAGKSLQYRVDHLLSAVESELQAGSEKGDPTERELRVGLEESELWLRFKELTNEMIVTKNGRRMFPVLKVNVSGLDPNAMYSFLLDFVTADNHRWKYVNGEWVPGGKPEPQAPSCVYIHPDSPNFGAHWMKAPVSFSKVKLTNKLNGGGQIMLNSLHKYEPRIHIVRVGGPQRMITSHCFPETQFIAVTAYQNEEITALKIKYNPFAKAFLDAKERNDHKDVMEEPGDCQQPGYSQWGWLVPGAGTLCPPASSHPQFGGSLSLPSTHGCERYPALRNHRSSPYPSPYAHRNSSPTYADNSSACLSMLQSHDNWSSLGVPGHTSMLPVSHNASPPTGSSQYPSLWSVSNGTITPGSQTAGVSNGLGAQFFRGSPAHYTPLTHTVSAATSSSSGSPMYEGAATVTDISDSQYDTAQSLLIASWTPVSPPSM

GST-T aa 230–436 (mouse) = biological target: T5, GST-T aa 230–436 (mouse) (UniProt P20293); test: as above
T5 sequence: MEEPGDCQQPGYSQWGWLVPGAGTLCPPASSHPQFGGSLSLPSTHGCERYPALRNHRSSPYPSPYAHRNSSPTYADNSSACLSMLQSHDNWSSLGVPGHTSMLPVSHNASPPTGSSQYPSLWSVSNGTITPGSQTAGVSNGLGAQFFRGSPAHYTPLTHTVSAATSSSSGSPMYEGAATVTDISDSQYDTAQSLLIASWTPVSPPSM

GST mEomes (mouse) = biological target: T6, GST mEomes (mouse) (UniProt O54839); test: as above
T6 sequence: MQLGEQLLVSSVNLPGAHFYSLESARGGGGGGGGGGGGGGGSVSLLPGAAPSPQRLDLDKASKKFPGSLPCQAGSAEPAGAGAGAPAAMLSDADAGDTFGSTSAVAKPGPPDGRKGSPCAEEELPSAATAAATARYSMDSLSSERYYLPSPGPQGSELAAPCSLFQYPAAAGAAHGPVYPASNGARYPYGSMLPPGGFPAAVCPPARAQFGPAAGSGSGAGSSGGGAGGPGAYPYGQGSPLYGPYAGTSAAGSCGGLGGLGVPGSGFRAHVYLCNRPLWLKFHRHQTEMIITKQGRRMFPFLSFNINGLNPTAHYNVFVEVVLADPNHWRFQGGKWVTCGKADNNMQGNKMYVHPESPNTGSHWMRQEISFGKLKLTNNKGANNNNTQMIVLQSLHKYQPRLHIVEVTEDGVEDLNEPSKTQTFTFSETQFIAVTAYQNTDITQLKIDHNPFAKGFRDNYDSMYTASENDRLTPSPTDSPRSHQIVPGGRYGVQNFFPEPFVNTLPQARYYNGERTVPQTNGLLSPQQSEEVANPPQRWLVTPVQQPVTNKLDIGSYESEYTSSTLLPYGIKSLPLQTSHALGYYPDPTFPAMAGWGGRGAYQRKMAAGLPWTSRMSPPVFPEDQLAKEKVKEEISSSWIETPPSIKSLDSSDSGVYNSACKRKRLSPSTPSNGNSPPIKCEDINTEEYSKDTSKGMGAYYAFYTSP

GST-T aa 151–436 (mouse) = biological target: T7, GST-T aa 151–436 (mouse) (UniProt P20293); test: as above
T7 sequence: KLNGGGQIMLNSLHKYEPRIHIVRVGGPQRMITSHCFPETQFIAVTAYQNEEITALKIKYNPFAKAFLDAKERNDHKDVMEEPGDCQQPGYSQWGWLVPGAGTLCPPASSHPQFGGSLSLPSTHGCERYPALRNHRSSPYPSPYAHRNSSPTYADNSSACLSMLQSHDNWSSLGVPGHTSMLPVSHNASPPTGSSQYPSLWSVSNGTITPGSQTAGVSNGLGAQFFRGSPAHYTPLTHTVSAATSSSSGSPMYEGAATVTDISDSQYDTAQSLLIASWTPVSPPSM

His-mBrachyury (mouse) = His-mBrachyury (mouse) (UniProt P20293); test: pull-down; recombinant His-Brachyury immobilised on Talon metal affinity resin; nuclear protein extracts of day 4 embryoid bodies; Western blot with anti-Mixl1 6G2; only the target purified

Substance: HA mGsc (from UniProt Q02591 1-256)
binding (FLAG mMixl1 (mouse)): binds
binding (GST mTbx3 (mouse)): binds
binding (GST mTbx6 (mouse)): binds
binding (GST mTbx20 (mouse)): binds
binding (GST mT (mouse)): binds

Substance: HA mMixl1 (from UniProt Q9WUI0 1-231)
binding (FLAG mMixl1 (mouse)): binds
binding (GST mTbx3 (mouse)): binds
binding (GST mTbx6 (mouse)): binds
binding (GST mTbx20 (mouse)): binds
binding (GST mT (mouse)): binds
binding (GST-T aa 230–436 (mouse)): binds
binding (GST mEomes (mouse)): binds
binding (GST-T aa 151–436 (mouse)): binds

Substance: HA mMixl1 R143I (from UniProt Q9WUI0 1-231)
binding (GST mT (mouse)): binds

Substance: HA mMixl1 V132A (from UniProt Q9WUI0 1-231)
binding (GST mT (mouse)): binds

Second part, the substance after the results:

binding (GST mT (mouse)): binds
Substance: HA mMixl1 I113R (from UniProt Q9WUI0 1-231)

binding (GST mT (mouse)): binds
Substance: HA mMixl1 P126I (from UniProt Q9WUI0 1-231)

binding (His-mBrachyury (mouse)): binds
Substance: endogenous Mixl1 (from UniProt Q9WUI0 1-231)
